In patent US20090156471A1, “Use of anti-amyloid agents for treating and typing pathogen infections” (RAMOT AT TEL AVIV UNIVERSITY LTD., priority 2005, published 2009):

Tested on: curli-expressing bacteria (E. coli XL1-Blue(pMRInv))
Conditions: grown 12 hours at 37° C. with 0, 10, 50 and 100 μM copper; data not shown
Protocol: Thus, although the binding is clearly stoichiometric the affinity for a single repeat is not high. Yet, the binding to the full-length protein may show cooperative behavior. […] This was deduced by inspecting QHGGGN peptides using electron microscopy, following 48 hours incubation with equimolar ratio of CuCl2 in 50 mM HEPES, pH 7.5 at room-temperature. […] However, this may be also due to the stress conditions imposed by the copper.

SMILES: [Cl][Cu][Cl] [copper, CuCl2]
- density of the bacterial biofilm: higher in correlative manner
